{"source": "paper PMC9911399", "about": "“Two distinct binding modes provide the RNA-binding protein RbFox with extraordinary sequence specificity”", "binders": {"B1": {"name": "UUCUGGC (DNA:RNA)", "RNA": "GGGAGACCGGAAUUCAGAUUGUCCUUCUGGCUUAAAUCCCGUCGUAGCCACCA", "DNA 1": "CAATCTGAATTCCGGTCTCCC", "DNA 2": "TGGTGGCTACGACGGGATT"}, "B2": {"name": "AUUGUGU (DNA:RNA)", "RNA": "B1 RNA with U25A, C27U, U28G, G29U, C31U", "DNA 1": "CAATCTGAATTCCGGTCTCCC", "DNA 2": "TGGTGGCTACGACGGGATT"}, "B3": {"name": "GCAUUAG (DNA:RNA)", "RNA": "B1 RNA with U25G, U26C, C27A, G29U, G30A, C31G", "DNA 1": "CAATCTGAATTCCGGTCTCCC", "DNA 2": "TGGTGGCTACGACGGGATT"}, "B4": {"name": "UUCCAGA (DNA:RNA)", "RNA": "B1 RNA with U28C, G29A, C31A", "DNA 1": "CAATCTGAATTCCGGTCTCCC", "DNA 2": "TGGTGGCTACGACGGGATT"}, "B5": {"name": "UUCGUGU (DNA:RNA)", "RNA": "B1 RNA with U28G, G29U, C31U", "DNA 1": "CAATCTGAATTCCGGTCTCCC", "DNA 2": "TGGTGGCTACGACGGGATT"}, "B6": {"name": "ACCUCCG (DNA:RNA)", "RNA": "B1 RNA with U25A, U26C, G29C, G30C, C31G", "DNA 1": "CAATCTGAATTCCGGTCTCCC", "DNA 2": "TGGTGGCTACGACGGGATT"}, "B7": {"name": "AGACUUA (DNA:RNA)", "RNA": "GGGAGACCGGAAUUCAGAUUGUCCAGACUUAUUAAAUCCCGUCGUAGCCACCA", "DNA 1": "CAATCTGAATTCCGGTCTCCC", "DNA 2": "TGGTGGCTACGACGGGATT"}, "B8": {"name": "CCUAAGA (DNA:RNA)", "RNA": "B7 RNA with A25C, G26C, A27U, C28A, U29A, U30G", "DNA 1": "CAATCTGAATTCCGGTCTCCC", "DNA 2": "TGGTGGCTACGACGGGATT"}, "B9": {"name": "GAAUAAU (DNA:RNA)", "RNA": "B7 RNA with A25G, G26A, C28U, U29A, U30A, A31U", "DNA 1": "CAATCTGAATTCCGGTCTCCC", "DNA 2": "TGGTGGCTACGACGGGATT"}, "B10": {"name": "GUCACCA (DNA:RNA)", "RNA": "B1 RNA with U25G, U28A, G29C, G30C, C31A", "DNA 1": "CAATCTGAATTCCGGTCTCCC", "DNA 2": "TGGTGGCTACGACGGGATT"}, "B11": {"name": "GGAAUAC (DNA:RNA)", "RNA": "B7 RNA with A25G, C28A, U30A, A31C", "DNA 1": "CAATCTGAATTCCGGTCTCCC", "DNA 2": "TGGTGGCTACGACGGGATT"}, "B12": {"name": "UCUUAAC (DNA:RNA)", "RNA": "B1 RNA with U26C, C27U, G29A, G30A", "DNA 1": "CAATCTGAATTCCGGTCTCCC", "DNA 2": "TGGTGGCTACGACGGGATT"}, "B13": {"name": "UCGCGUC (DNA:RNA)", "RNA": "B1 RNA with U26C, C27G, U28C, G30U", "DNA 1": "CAATCTGAATTCCGGTCTCCC", "DNA 2": "TGGTGGCTACGACGGGATT"}, "B14": {"name": "CCGCUAG (DNA:RNA)", "RNA": "B7 RNA with A25C, G26C, A27G, U30A, A31G", "DNA 1": "CAATCTGAATTCCGGTCTCCC", "DNA 2": "TGGTGGCTACGACGGGATT"}, "B15": {"name": "UACUGUC (DNA:RNA)", "RNA": "B1 RNA with U26A, G30U", "DNA 1": "CAATCTGAATTCCGGTCTCCC", "DNA 2": "TGGTGGCTACGACGGGATT"}, "B16": {"name": "GGAAUAU (DNA:RNA)", "RNA": "B7 RNA with A25G, C28A, U30A, A31U", "DNA 1": "CAATCTGAATTCCGGTCTCCC", "DNA 2": "TGGTGGCTACGACGGGATT"}, "B17": {"name": "GAAACGC (DNA:RNA)", "RNA": "B1 RNA with U25G, U26A, C27A, U28A, G29C", "DNA 1": "CAATCTGAATTCCGGTCTCCC", "DNA 2": "TGGTGGCTACGACGGGATT"}, "B18": {"name": "AUGGACC (DNA:RNA)", "RNA": "B1 RNA with U25A, C27G, U28G, G29A, G30C", "DNA 1": "CAATCTGAATTCCGGTCTCCC", "DNA 2": "TGGTGGCTACGACGGGATT"}, "B19": {"name": "AAUCGAA (DNA:RNA)", "RNA": "B7 RNA with G26A, A27U, U29G, U30A", "DNA 1": "CAATCTGAATTCCGGTCTCCC", "DNA 2": "TGGTGGCTACGACGGGATT"}, "B20": {"name": "CUAAACU (DNA:RNA)", "RNA": "B7 RNA with A25C, G26U, C28A, U29A, U30C, A31U", "DNA 1": "CAATCTGAATTCCGGTCTCCC", "DNA 2": "TGGTGGCTACGACGGGATT"}, "B21": {"name": "CAUCCGC (DNA:RNA)", "RNA": "B1 RNA with U25C, U26A, C27U, U28C, G29C", "DNA 1": "CAATCTGAATTCCGGTCTCCC", "DNA 2": "TGGTGGCTACGACGGGATT"}, "B22": {"name": "UACUCCG (DNA:RNA)", "RNA": "B1 RNA with U26A, G29C, G30C, C31G", "DNA 1": "CAATCTGAATTCCGGTCTCCC", "DNA 2": "TGGTGGCTACGACGGGATT"}, "B23": {"name": "AACGCUA (DNA:RNA)", "RNA": "B7 RNA with G26A, A27C, C28G, U29C", "DNA 1": "CAATCTGAATTCCGGTCTCCC", "DNA 2": "TGGTGGCTACGACGGGATT"}, "B24": {"name": "GAGAAAA (DNA:RNA)", "RNA": "B7 RNA with A25G, G26A, A27G, C28A, U29A, U30A", "DNA 1": "CAATCTGAATTCCGGTCTCCC", "DNA 2": "TGGTGGCTACGACGGGATT"}, "B25": {"name": "CGGAGAG (DNA:RNA)", "RNA": "B7 RNA with A25C, A27G, C28A, U29G, U30A, A31G", "DNA 1": "CAATCTGAATTCCGGTCTCCC", "DNA 2": "TGGTGGCTACGACGGGATT"}, "B26": {"name": "UAUGCAC (DNA:RNA)", "RNA": "B1 RNA with U26A, C27U, U28G, G29C, G30A", "DNA 1": "CAATCTGAATTCCGGTCTCCC", "DNA 2": "TGGTGGCTACGACGGGATT"}, "B27": {"name": "AGACAUC (DNA:RNA)", "RNA": "B7 RNA with U29A, A31C", "DNA 1": "CAATCTGAATTCCGGTCTCCC", "DNA 2": "TGGTGGCTACGACGGGATT"}, "B28": {"name": "UCGGAAA (DNA:RNA)", "RNA": "B7 RNA with A25U, G26C, A27G, C28G, U29A, U30A", "DNA 1": "CAATCTGAATTCCGGTCTCCC", "DNA 2": "TGGTGGCTACGACGGGATT"}, "B29": {"name": "CGACCCG (DNA:RNA)", "RNA": "B7 RNA with A25C, U29C, U30C, A31G", "DNA 1": "CAATCTGAATTCCGGTCTCCC", "DNA 2": "TGGTGGCTACGACGGGATT"}, "B30": {"name": "CCGCUGC (DNA:RNA)", "RNA": "B7 RNA with A25C, G26C, A27G, U30G, A31C", "DNA 1": "CAATCTGAATTCCGGTCTCCC", "DNA 2": "TGGTGGCTACGACGGGATT"}, "B31": {"name": "CCGGACU (DNA:RNA)", "RNA": "GGGAGACCGGAAUUCAGAUUGUCCCCGGACUUUAAAUCCCGUCGUAGCCACCA", "DNA 1": "CAATCTGAATTCCGGTCTCCC", "DNA 2": "TGGTGGCTACGACGGGATT"}}, "note": "Residue numbers refer to the chain shown, from its start. The list shows a part of the results.", "data": [{"biological_target": "T1, RBFOX1 RRM (Homo sapiens, UniProt Q9NWB1 109-208)", "T1 sequence": "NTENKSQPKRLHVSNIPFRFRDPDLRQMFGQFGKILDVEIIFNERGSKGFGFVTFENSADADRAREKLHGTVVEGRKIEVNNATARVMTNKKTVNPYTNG", "experiment": "EMSA; HiTS-Eq, 1 nM pool, 10 min; buffer printed only for the single-RNA assays: 10 mM Tris pH 7.5, 150 mM NaCl, 3.4 mM EDTA, 0.001% NP-40, 30 C", "conditions": "tags: His6 N-terminal (pET28a); label: 5' 32P", "method_in_brief": "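Relative association constants, normalised to the cognate motif, were derived by comparing read counts of each RNA species with those of the control reaction. The RNA sequenced was the free fraction, separated by 8% native PAGE after a 10 min equilibration in 50 µL of 1 nM 5′-radiolabelled RNA (7 randomized nucleotides) with increasing concentrations of purified wild-type or mutant RbFox RRM.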", "values": [{"binder": "B1", "binding signal": "0.0125 KA relative to UGCAUGU"}, {"binder": "B2", "binding signal": "0.0145 KA relative to UGCAUGU"}, {"binder": "B3", "binding signal": "0.0137 KA relative to UGCAUGU"}, {"binder": "B4", "binding signal": "0.0088 KA relative to UGCAUGU"}, {"binder": "B5", "binding signal": "0.0229 KA relative to UGCAUGU"}, {"binder": "B6", "binding signal": "0.00287 KA relative to UGCAUGU"}, {"binder": "B7", "binding signal": "0.00322 KA relative to UGCAUGU"}, {"binder": "B8", "binding signal": "0.00773 KA relative to UGCAUGU"}, {"binder": "B9", "binding signal": "0.00386 KA relative to UGCAUGU"}, {"binder": "B10", "binding signal": "0.00474 KA relative to UGCAUGU"}, {"binder": "B11", "binding signal": "0.00878 KA relative to UGCAUGU"}, {"binder": "B12", "binding signal": "0.00519 KA relative to UGCAUGU"}, {"binder": "B13", "binding signal": "0.0138 KA relative to UGCAUGU"}, {"binder": "B14", "binding signal": "0.0146 KA relative to UGCAUGU"}, {"binder": "B15", "binding signal": "0.0158 KA relative to UGCAUGU"}, {"binder": "B16", "binding signal": "0.00795 KA relative to UGCAUGU"}, {"binder": "B17", "binding signal": "0.00639 KA relative to UGCAUGU"}, {"binder": "B18", "binding signal": "0.0115 KA relative to UGCAUGU"}, {"binder": "B19", "binding signal": "0.00572 KA relative to UGCAUGU"}, {"binder": "B20", "binding signal": "0.0029 KA relative to UGCAUGU"}, {"binder": "B21", "binding signal": "0.00206 KA relative to UGCAUGU"}, {"binder": "B22", "binding signal": "0.00858 KA relative to UGCAUGU"}, {"binder": "B23", "binding signal": "0.00499 KA relative to UGCAUGU"}, {"binder": "B24", "binding signal": "0.00503 KA relative to UGCAUGU"}, {"binder": "B25", "binding signal": "0.0277 KA relative to UGCAUGU"}, {"binder": "B26", "binding signal": "0.0143 KA relative to UGCAUGU"}, {"binder": "B27", "binding signal": "0.00453 KA relative to UGCAUGU"}, {"binder": "B28", "binding signal": "0.00663 KA relative to UGCAUGU"}, {"binder": "B29", "binding signal": "0.00524 KA relative to UGCAUGU"}, {"binder": "B30", "binding signal": "0.0127 KA relative to UGCAUGU"}, {"binder": "B31", "binding signal": "0.0067 KA relative to UGCAUGU"}]}]}
